# “And” between values parts separate entries of the source, which are not always exact repeats. Equal values may be shown once. The shares of active, inactive and inconclusive entries below differ from those in the screen. Where the call is inconclusive, the potency comes from a doubtful curve fit. A structure can be active in one record and inactive in another. The source made the active and inactive calls. Calls follow the shape of the dose curve; as a rule, active = well fitted curve in the direction sought with a large enough effect; inconclusive = small, poorly fitted or top-dose-only effect, or another doubt; inactive = no such curve, though single readings can be large; an effect the other way counts as inactive or inconclusive.
# Legend:
# [1] = qHTS assay to identify small molecule inhibitors of chordoma cells - UCH-1 (AID 1259355); settings: UCH-1 chordoma viability, CellTiter-Glo, 48 h, combination, with auranofin plus four topoisomerase inhibitors; series mostly up to 46.1 µM; also: nearly all actives have a fitted effect of over 55% in size; also: potency is read from the fitted curve at half-maximal effect
# Procedure, shortened: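 Seed 800 cells per well; incubate overnight at 37 C, 5% CO2. Add test compounds (15 concentrations), then the auranofin–topoisomerase-agent combination. Incubate 48hr, add CellTiter-Glo, wait 30min, read luminescence.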
# [2] = Identifying Small Molecule Inhibitors of Pancreatic Cancer Stem Cells (A2780, Spheroid) (AID 1259357); settings: Potency: A2780 spheroid viability; viability (percent of control): at 46.1 µM (top of the series); also: potency is read from the fitted curve at half-maximal effect;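 also: spheroids pre-formed over 14 days in stem cell medium on hydrogel; compound exposure lasted 48 h before the ATP luminescence read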;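 as to viability (percent of control): 100% = DMSO treated cells and 0% = wells without cells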
# Procedure, shortened: (§1)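 Pre-formed 14-day tumor spheroids or adherent cells dosed and incubated 48 h, 37C, 5% CO2. Viability assessed by CellTiter-Glo.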
# [3] = Identifying Small Molecule Inhibitors of Pancreatic Cancer Stem Cells (SN12C, Adherent) (AID 1259358); settings: viability/growth inhibition; series mostly up to 46.1 µM;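 also: cell survival measured after 48 h of compound exposure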; also: potency is read from the fitted curve at half-maximal effect
# Procedure, shortened: as §1
# [4] = Identifying Small Molecule Inhibitors of Pancreatic Cancer Stem Cells (Panc1, Spheroid) (AID 1259359); settings: Panc1 spheroid cancer stem cell viability; viability, % of control: at 46.1 µM (top of the series);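 also: compound exposure lasted 48 h before reading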; also: potency is read from the fitted curve at half-maximal effect
# Procedure, shortened: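 Endpoint: ATP-based luminescence, 48 h drug exposure. Bortezomib at 9.2 uM final as full-kill control; DMSO vehicle as negative control; activity normalized between vehicle and cell-free wells.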
# [5] = Identifying Small Molecule Inhibitors of Pancreatic Cancer Stem Cells (SN12C, Spheroid) (AID 1259360); settings: Potency: SN12C spheroid viability; series mostly up to 46.1 µM; also: potency is read from the fitted curve at half-maximal effect;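 as to viability (% of control): 100% = DMSO-treated cells and 0% = wells without cells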
# Procedure, shortened: as §1
# [6] = Identifying Small Molecule Inhibitors of Pancreatic Cancer Stem Cells (A278, Adherent) (AID 1259361); settings: viability (% of control): at 46.1 µM (top of the series);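 also: viability read after 48 h compound exposure; nearly all actives have a fitted effect of over 35% in size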;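 as to viability (% of control): 100% = DMSO-treated cells and 0% = cell-free media-only wells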
# Procedure, shortened: as §1
# [7] = Identifying Small Molecule Inhibitors of Pancreatic Cancer Stem Cells (Panc1, Adherent) (AID 1259362); settings: Potency: viability; viability, % of control: at 46.1 µM (top of the series); also: potency is read from the fitted curve at half-maximal effect;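 as to viability, % of control: compound exposure lasted 48 h before the viability read; plate controls were DMSO-treated cells for no effect and cell-free media wells for full effect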
# Procedure, shortened: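 Luminescent ATP readout (CellTiter-Glo) quantifies surviving cells after a 48 h drug incubation. Normalization uses DMSO wells as no inhibition and media-only wells as full inhibition; bortezomib served as positive control.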
# [8] = P-glycoprotein substrates identified in KB-8-5-11 adenocarcinoma cell line, qHTS therapeutic library screen (AID 1346987); settings: KB-8-5-11 (P-gp overexpressing) viability, CellTiter-Glo, 72 h; series mostly up to 44.5 µM; also: nearly all actives have a fitted effect of over 65% in size; also: potency is read from the fitted curve at half-maximal effect
# Procedure, shortened: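 KB-8-5-11: colchicine-selected sub-line of KB-3-1 over-expressing P-gp; assay medium lacked colchicine. 72 h drug exposure at 37 degree C, CellTiter-Glo.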
# [9] = P-glycoprotein substrates identified in KB-3-1 adenocarcinoma cell line, qHTS therapeutic library screen (AID 1346986); settings: KB-3-1 parental cells viability, CellTiter-Glo, 72 h; series mostly up to 44.5 µM;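 also: potency is read from the fitted curve at half-maximal effect; potency is for cytotoxicity meaning loss of cell viability; nearly all actives have a fitted effect of over 60% in size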
# Procedure, shortened: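 Counter-screen: cherry-picked hits retested in the KB pair and in HEK-293 pcDNA/MDR-19 cells ± tariquidar. Primary screen used 72 h CellTiter-Glo viability in KB-3-1 and KB-8-5-11.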
# Tags tell the direction and shape of the fitted curve.
compound,measurement,setting,value
CNC[C@H](O)c1ccc(O)c(O)c1,Potency,[1],"inconclusive: 35.5 µM [cytotoxic, single point]"
OCc1cc(C(O)CNCCCCCCOCCCCc2ccccc2)ccc1O (stereo unspecified),Potency,[1],"inconclusive: 35.5 µM [cytotoxic, single point]"
COc1cc2nc(-c3ccc(N4CCN(C)CC4)cc3)nc(NCCN3CCOCC3)c2cc1OC,Potency,[2],"inconclusive: 0.59 µM [rising, full curve, poor fit]"
same,Potency,[3],"inconclusive: 33.2 µM [cytotoxic, single point]"
same,Potency,[4],"inconclusive: 20.9 µM [cytotoxic, partial curve, poor fit]"
same,Potency,[5],"inconclusive: 29.6 µM [cytotoxic, single point]"
same,IC50 (viability decrease),[6],"inconclusive: 16.6 µM [cytotoxic, partial curve]"
same,Potency,[7],"inconclusive: 37.2 µM [cytotoxic, single point]"
CC(C(=O)O)c1ccc(-c2ccccc2)c(F)c1 (stereo unspecified),Potency,[1],inconclusive: 0.0004 µM [cytotoxic]
same,Potency,[8],inactive
CC(C)(C)c1ccc(C(=O)CCCN2CCC(OC(c3ccccc3)c3ccccc3)CC2)cc1,Potency,[1],active: 15.8 µM
CCCSc1ccc2nc(NC(=O)OC)[nH]c2c1,Potency,[1],"inconclusive: 0.0158 µM [cytotoxic, full curve, poor fit]"
same,Potency,[8],active: 0.556 µM
Oc1ccc(O)cc1,Potency,[1],"inconclusive: 0.0251 µM [cytotoxic, full curve, poor fit]"
CC(=O)Oc1ccccc1C(=O)Nc1ncc([N+](=O)[O-])s1,Potency,[1],"inconclusive: 31.6 µM [cytotoxic, partial curve, poor fit]"
same,Potency,[8],active: 13 µM
CCCOC(=O)c1ccc(O)cc1,Potency,[1],inactive
CC(=O)OCC(=O)[C@@]1(O)CC[C@H]2[C@@H]3CCC4=CC(=O)C=C[C@]4(C)[C@H]3[C@@H](O)C[C@@]21C,Potency,[1],"inconclusive: 0.0891 µM [cytotoxic, full curve, poor fit]"
Cn1nnc2c(C(N)=O)ncn2c1=O,Potency,[1],"inconclusive: 7.08 µM [rising, full curve, poor fit]"
C#C[C@]1(O)CC[C@H]2[C@@H]3CCc4cc(O)ccc4[C@H]3CC[C@@]21C,Potency,[1],"inconclusive: 7.94 µM [cytotoxic, partial curve, poor fit]"
[O-][n+]1ccccc1SSc1cccc[n+]1[O-],Potency,[1],"inconclusive: 0.501 µM [cytotoxic, full curve, poor fit]"
CN1CCC[C@@H]1c1cccnc1,Potency,[1],"inconclusive: 28.2 µM [cytotoxic, single point]"
O=C(Nc1nc2ccccc2n1CCN1CCOCC1)c1cccc([N+](=O)[O-])c1,Potency,[2],"inconclusive: 0.0372 µM [rising, full curve, poor fit]"
same,Potency,[3],inactive
same,"viability, % of control",[4],inconclusive: 49.4%
same,Potency,[5],"inconclusive: 0.0235 µM [rising, full curve, poor fit]"
same,IC50 (viability decrease),[6],"inconclusive: 13.2 µM [cytotoxic, partial curve, poor fit]"
same,"viability, % of control",[7],inconclusive: 123%
COc1ccc(O)cc1,Potency,[1],inactive
OC(CCN1CCCCC1)(c1ccccc1)c1ccccc1,Potency,[1],"inconclusive: 0.316 µM [cytotoxic, full curve, poor fit]"
same,Potency,[8],"inconclusive: 18.4 µM [inhibitor, single point]"
CN(C)c1ccc(C(=C2C=CC(=[N+](C)C)C=C2)c2ccccc2)cc1,Potency,[1],"inconclusive: 25.1 µM [cytotoxic, single point]"
Cc1cc(C)c(/C=C2\C(=O)Nc3ccccc32)[nH]1,Potency,[1],inactive
CCN1/C(=C/C=C/c2sc3ccccc3[n+]2CC)Sc2ccccc21,Potency,[1],active: 7.94 µM
same,Potency,[8],active: 18.4 µM
COc1ccc(Cl)cc1C(=O)NCCc1ccc(S(=O)(=O)NC(=O)NC2CCCCC2)cc1,Potency,[1],inactive
CCC[C@@H]1C[C@@H](C(=O)N[C@@H]([C@H]2O[C@H](SC)[C@H](O)[C@@H](O)[C@H]2O)[C@@H](C)O)N(C)C1,Potency,[1],"inconclusive: 25.1 µM [cytotoxic, partial curve, poor fit]"
Cc1c(C(=O)O)c(O)cc2c1C(=O)c1c(O)c([C@@H]3O[C@H](CO)[C@@H](O)[C@H](O)[C@H]3O)c(O)c(O)c1C2=O,Potency,[1],"inconclusive: 10 µM [cytotoxic, partial curve, poor fit]"
same,Potency,[8],"inconclusive: 7.31 µM [inhibitor, partial curve]"
CN1[C@@H](CC(=O)c2ccccc2)CCC[C@H]1C[C@H](O)c1ccccc1,Potency,[1],"inconclusive: 0.0008 µM [cytotoxic, full curve, poor fit]"
Clc1ccc2nsnc2c1NC1=NCCN1,Potency,[1],"inconclusive: 0.0141 µM [cytotoxic, full curve, poor fit]"
C[C@H]1C[C@H]2[C@@H]3CCC4=CC(=O)C=C[C@]4(C)[C@@]3(Cl)[C@@H](O)C[C@]2(C)[C@@]1(O)C(=O)CO,Potency,[1],"inconclusive: 0.126 µM [cytotoxic, full curve]"
COC(=O)C1=C(C)NC(C)=C(C(=O)OC)C1c1ccccc1[N+](=O)[O-],Potency,[1],inactive
C=C[C@H]1CN2CC[C@H]1C[C@H]2[C@H](O)c1ccnc2ccc(OC)cc12,Potency,[1],inactive
same,Potency,[8],"inconclusive: 18.4 µM [inhibitor, single point]"
CC(O)(P(=O)(O)O)P(=O)(O)O,Potency,[1],"inconclusive: 15.8 µM [cytotoxic, single point]"
COc1cccc2c1C(=O)c1c(O)c3c(c(O)c1C2=O)C[C@@](O)(C(=O)CO)C[C@@H]3O[C@H]1C[C@H](N)[C@H](O[C@@H]2CCCCO2)[C@H](C)O1,Potency,[1],active: 3.98 µM
O=c1c(O)c(-c2ccc(O)c(O)c2)oc2cc(O)ccc12,Potency,[9],"inconclusive: 29.1 µM [inhibitor, single point]"
same,Potency,[8],"inconclusive: 29.1 µM [inhibitor, single point]"
C=CC(=O)Nc1cc2c(Nc3ccc(F)c(Cl)c3)ncnc2cc1C#CC(C)(C)N1CCN(C)CC1,Potency,[2],active: 16.6 µM
same,Potency,[3],active: 13.2 µM
same,Potency,[4],active: 5.26 µM
same,Potency,[5],active: 6.62 µM
same,Potency,[7],active: 11.8 µM
same,Potency,[8],"inconclusive: 16.6 µM [inhibitor, single point] and active: 16.4 µM"
Nc1ccccc1NC(=O)c1ccc(CNC(=O)OCc2cccnc2)cc1,viability (percent of control),[2],inconclusive: 120%
same,"viability, % of control",[4],inconclusive: 110%
same,Potency,[5],inactive
same,IC50 (viability decrease),[6],inactive
same,Potency,[7],"inconclusive: 14.8 µM [cytotoxic, partial curve, poor fit]"
NC1CCC(Nc2nc(Nc3ccc(C(=O)N4CCCCC4)cc3)c3ncn(-c4cccc(F)c4)c3n2)CC1 (stereo unspecified),Potency,[9],"inconclusive: 23.1 µM [inhibitor, single point]"
same,Potency,[8],"inconclusive: 29.1 µM [inhibitor, single point]"
Cc1csc(NC(=O)c2sc3nc4c(c(C(F)(F)F)c3c2N)CCC4)n1,Potency,[2],inactive
same,Potency,[4],"inconclusive: 4.69 µM [cytotoxic, partial curve, poor fit]"
same,IC50 (viability decrease),[6],inactive
same,Potency,[7],inactive
same,Potency,[8],"inconclusive: 14.6 µM [inhibitor, partial curve]"
C[C@H](Cc1ccc(O)c(O)c1)[C@@H](C)Cc1ccc(O)c(O)c1,Potency,[9],"inconclusive: 16.4 µM [inhibitor, single point]"
COc1cc2nc(N3CCCN(C)CC3)nc(NC3CCN(Cc4ccccc4)CC3)c2cc1OC,Potency,[2],"inconclusive: 37.2 µM [rising, single point]"
same,Potency,[3],"inconclusive: 33.2 µM [cytotoxic, single point]"
same,Potency,[5],"inconclusive: 33.2 µM [cytotoxic, single point]"
same,IC50 (viability decrease),[6],"inconclusive: 33.2 µM [cytotoxic, single point]"
same,Potency,[7],active: 2.35 µM
CO[C@H]1C=CC=C(C)C(=O)NC2=CC(=O)C(NCCN(C)C)=C(C[C@@H](C)C[C@H](OC)[C@@H](O)[C@@H](C)C=C(C)[C@@H]1OC(N)=O)C2=O,Potency,[2],"inconclusive: 9.35 µM [rising, full curve, poor fit]"
same,Potency,[3],active: 0.0935 µM
same,Potency,[4],"inconclusive: 0.0021 µM [cytotoxic, full curve, poor fit]"
same,Potency,[5],active: 0.0059 µM
same,Potency,[7],"inconclusive: 4.18 µM [cytotoxic, full curve, poor fit]"
COCCn1c2c([n+](Cc3cnccn3)c1C)C(=O)c1ccccc1C2=O,Potency,[2],active: 0.0132 µM
same,Potency,[3],active: 0.0264 µM
same,Potency,[4],inactive
same,Potency,[5],active: 0.105 µM
same,IC50 (viability decrease),[6],active: 0.0066 µM
same,Potency,[7],inactive
CC1CN(c2cc3c(cc2F)c(=O)c(C(=O)O)cn3-c2ccc(F)cc2F)CCN1 (stereo unspecified),Potency,[8],inactive
OC(CN1CCC(Cc2ccc(F)cc2)CC1)c1ccc(Cl)cc1 (stereo unspecified),Potency,[2],"inconclusive: 0.118 µM [cytotoxic, full curve]"
same,Potency,[3],inactive
same,IC50 (viability decrease),[6],inactive
same,Potency,[7],"inconclusive: 13.2 µM [cytotoxic, partial curve, poor fit]"
Cn1cc(C2=C(c3ccc(Cl)cc3Cl)C(=O)NC2=O)c2ccccc21,Potency,[9],"inconclusive: 25.9 µM [inhibitor, single point]"
same,Potency,[8],"inconclusive: 29.1 µM [inhibitor, single point]"
